{
  "sequences": {"note": "Amino acid sequences for entries named in this document (tags omitted).", "UniProt Q7Z434": "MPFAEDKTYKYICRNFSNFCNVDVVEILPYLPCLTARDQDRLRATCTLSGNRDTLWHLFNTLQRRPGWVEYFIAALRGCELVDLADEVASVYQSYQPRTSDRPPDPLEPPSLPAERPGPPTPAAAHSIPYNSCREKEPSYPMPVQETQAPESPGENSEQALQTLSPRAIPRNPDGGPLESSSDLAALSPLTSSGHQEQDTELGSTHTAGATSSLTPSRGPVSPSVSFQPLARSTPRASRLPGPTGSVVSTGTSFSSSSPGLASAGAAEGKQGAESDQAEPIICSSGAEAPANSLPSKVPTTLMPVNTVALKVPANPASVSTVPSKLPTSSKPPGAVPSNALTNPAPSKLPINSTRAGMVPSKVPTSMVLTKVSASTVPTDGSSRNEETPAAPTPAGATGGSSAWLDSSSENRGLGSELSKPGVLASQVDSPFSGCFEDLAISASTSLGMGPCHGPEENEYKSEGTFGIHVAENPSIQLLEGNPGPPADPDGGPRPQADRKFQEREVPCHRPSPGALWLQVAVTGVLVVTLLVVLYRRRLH"},
  "source": "paper PMC7588591",
  "key": {"[1]": {"molecular_target": "endogenous MAVS (human (endogenous in HEK293)) (UniProt Q7Z434)", "assay": "semidenaturing detergent agarose gel electrophoresis (SDD-AGE)"}, "[2]": {"molecular_target": "MAVS (tagged, transfected) (UniProt Q7Z434)", "assay": "co-IP"}, "[3]": {"molecular_target": "T1, TBK1 (tagged, transfected, co-IP) (UniProt Q9UHD2)", "T1 sequence": "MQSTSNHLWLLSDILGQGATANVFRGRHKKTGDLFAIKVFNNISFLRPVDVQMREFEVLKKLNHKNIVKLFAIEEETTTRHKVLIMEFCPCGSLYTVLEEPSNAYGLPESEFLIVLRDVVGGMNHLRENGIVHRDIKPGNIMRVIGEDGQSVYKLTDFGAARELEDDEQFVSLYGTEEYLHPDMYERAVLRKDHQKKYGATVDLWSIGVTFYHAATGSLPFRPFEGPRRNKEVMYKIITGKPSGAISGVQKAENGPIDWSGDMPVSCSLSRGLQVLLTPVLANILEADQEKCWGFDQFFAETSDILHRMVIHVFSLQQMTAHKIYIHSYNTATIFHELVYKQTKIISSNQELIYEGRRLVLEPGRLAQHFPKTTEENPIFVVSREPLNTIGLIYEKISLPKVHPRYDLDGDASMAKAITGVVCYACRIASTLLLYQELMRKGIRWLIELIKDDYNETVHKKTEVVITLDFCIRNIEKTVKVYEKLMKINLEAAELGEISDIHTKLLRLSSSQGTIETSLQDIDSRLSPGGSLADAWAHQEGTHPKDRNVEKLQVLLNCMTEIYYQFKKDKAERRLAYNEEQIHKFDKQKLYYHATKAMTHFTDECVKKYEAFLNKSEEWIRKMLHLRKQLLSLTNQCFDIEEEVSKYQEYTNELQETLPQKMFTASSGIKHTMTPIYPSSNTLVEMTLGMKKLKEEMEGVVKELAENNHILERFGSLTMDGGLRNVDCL", "assay": "co-IP"}, "[4]": {"molecular_target": "T2, MDA5 (tagged, transfected) (UniProt Q9BYX4)", "T2 sequence": "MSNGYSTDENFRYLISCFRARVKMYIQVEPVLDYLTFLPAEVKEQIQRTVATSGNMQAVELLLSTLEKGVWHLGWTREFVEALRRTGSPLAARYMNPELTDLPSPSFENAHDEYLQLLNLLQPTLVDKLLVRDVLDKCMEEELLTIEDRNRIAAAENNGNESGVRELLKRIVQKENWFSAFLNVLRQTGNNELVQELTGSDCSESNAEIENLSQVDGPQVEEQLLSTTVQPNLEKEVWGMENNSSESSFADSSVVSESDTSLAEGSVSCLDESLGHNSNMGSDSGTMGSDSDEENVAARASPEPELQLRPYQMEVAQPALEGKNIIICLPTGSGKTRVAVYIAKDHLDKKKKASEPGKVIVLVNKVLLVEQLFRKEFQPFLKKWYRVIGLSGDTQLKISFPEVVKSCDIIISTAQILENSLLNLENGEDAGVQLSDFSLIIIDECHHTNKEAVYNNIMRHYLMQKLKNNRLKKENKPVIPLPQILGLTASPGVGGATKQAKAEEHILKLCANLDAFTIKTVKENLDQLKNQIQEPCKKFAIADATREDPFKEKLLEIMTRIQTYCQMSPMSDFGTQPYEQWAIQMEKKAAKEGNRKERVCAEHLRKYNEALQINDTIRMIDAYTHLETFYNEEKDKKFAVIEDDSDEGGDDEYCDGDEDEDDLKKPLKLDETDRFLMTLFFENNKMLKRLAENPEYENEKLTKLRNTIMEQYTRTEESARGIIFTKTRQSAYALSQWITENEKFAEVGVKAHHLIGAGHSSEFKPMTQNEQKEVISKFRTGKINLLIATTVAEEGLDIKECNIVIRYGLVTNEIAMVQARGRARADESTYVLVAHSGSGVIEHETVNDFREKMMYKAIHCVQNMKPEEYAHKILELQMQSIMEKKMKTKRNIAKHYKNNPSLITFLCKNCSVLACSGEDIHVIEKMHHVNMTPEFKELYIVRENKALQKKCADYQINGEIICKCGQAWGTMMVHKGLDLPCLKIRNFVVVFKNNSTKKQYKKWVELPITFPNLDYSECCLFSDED", "assay": "co-IP"}, "[5]": {"molecular_target": "T3, RIG-I (tagged, transfected) (UniProt O95786)", "T3 sequence": "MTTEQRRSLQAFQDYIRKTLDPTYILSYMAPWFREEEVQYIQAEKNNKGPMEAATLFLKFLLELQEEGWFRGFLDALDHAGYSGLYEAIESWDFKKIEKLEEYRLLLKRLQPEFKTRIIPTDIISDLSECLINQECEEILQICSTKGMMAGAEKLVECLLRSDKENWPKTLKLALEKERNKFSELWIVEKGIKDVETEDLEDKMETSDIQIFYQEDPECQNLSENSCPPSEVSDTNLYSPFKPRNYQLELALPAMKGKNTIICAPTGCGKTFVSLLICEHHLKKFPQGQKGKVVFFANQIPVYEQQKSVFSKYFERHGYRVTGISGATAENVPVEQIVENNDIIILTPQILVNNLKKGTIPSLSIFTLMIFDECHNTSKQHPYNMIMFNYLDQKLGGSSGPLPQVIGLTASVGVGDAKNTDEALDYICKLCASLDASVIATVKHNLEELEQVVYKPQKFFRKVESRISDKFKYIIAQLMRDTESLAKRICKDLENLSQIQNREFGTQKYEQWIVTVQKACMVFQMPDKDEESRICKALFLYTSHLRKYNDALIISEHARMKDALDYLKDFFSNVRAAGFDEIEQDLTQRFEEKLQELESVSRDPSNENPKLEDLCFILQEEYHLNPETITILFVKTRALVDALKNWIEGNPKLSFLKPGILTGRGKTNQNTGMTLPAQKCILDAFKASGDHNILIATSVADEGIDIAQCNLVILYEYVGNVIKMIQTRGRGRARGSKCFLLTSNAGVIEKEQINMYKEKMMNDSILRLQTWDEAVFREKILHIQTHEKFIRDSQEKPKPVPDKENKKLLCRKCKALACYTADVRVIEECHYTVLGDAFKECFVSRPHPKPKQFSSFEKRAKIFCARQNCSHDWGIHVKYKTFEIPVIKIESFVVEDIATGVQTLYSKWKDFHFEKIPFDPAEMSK", "assay": "co-IP"}, "[6]": {"molecular_target": "endogenous MAVS (human (endogenous in HEK293)) (UniProt Q7Z434)", "assay": "co-IP"}},
  "note": "No constants are given. Whether binding was seen depends on the method and setting. For part of these data: In cells and extracts the contact can be indirect. Some binding calls cover weakened binding; strength is not graded here. For part of these data: Tags and fused reporters may be left off the sequences shown.",
  "data": [
    {"substance": "SARS-CoV-2 membrane glycoprotein M (tagged, transfected) (from UniProt P0DTC5 1-222)", "values": [
      {"measurement": "binding", "setting": "[1]", "value": "binds"},
      {"measurement": "binding", "setting": "[2]", "value": "binds"},
      {"measurement": "binding", "setting": "[3]", "value": "no binding"},
      {"measurement": "binding", "setting": "[4]", "value": "no binding"},
      {"measurement": "binding", "setting": "[5]", "value": "no binding"}
    ]},
    {"substance": "Flag-tagged M (HEK293 cells expressing it) (from UniProt P0DTC5 1-222)", "values": [
      {"measurement": "binding", "setting": "[6]", "value": "binds"}
    ]}
  ]
}
